According to PubChem BioAssay AID1458 (National Center for Advancing Translational Sciences (NCATS), 2008):
Hit rate of the full screen: of about 210,000 compounds, about 5,900 (2.8%) were called active. The inconclusive results got no clear call from the source; some entries with a clear call stand among them for comparison. Calls follow the shape of the dose curve; as a rule, active = well fitted activation curve with a large enough effect; inconclusive = small, poorly fitted or top-dose-only effect; inactive = no such curve, though single readings can be large or run the other way. Where the call is inconclusive, the potency comes from a doubtful curve fit.
Potency is read from the fitted curve at half-maximal effect; tags tell the direction and shape of the fitted curve.

Assay: qHTS Assay for Enhancers of SMN2 Splice Variant Expression; also: nearly all actives have a fitted effect of over 55% in size; as to activity change, positive = activation: % of control where 0% means no effect
Conditions: HEK293 SMN2-luciferase splicing reporter, luminescence, 30-36 h; activity change, positive = activation: at 46.1 µM (top of the series)
In short: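 qHTS luciferase splicing reporter: luminescence rises when SMN2 exon 7 is included in transfected HEK293 cells. Compound exposure lasted 30-36 h at 37C, with 4.5 mM final sodium butyrate as control, followed by a ONE-Glo read.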
In the case of `O=C(CSc1nnc(-c2ccccc2)c(-c2ccccc2)n1)Nc1ccc(Br)cn1`, the “activity change, positive = activation” value is reported as inactive: -47.8%.
In the case of `COc1ccc(NC(=O)CN2CCC(C)CC2)c([N+](=O)[O-])c1`, the “activity change, positive = activation” value is reported as inactive: -1.03%.
In the case of `Cc1cc(N)n2ncc(-c3ccccc3)c2n1`, the Potency is reported as active: 15.8 µM.
In the case of `Nc1nnc(SCC(=O)Nc2ccccc2N2CCOCC2)s1`, the Potency is reported as inconclusive: 6.31 µM [activator, partial curve, poor fit].
In the case of `O=C(Nc1ccccc1)N1CCn2c1nc1ccccc12`, the Potency is reported as inconclusive: 2.82 µM [activator, partial curve].
In the case of `Cc1cc2ncn(-c3ncnc4sc5c(c34)CCCC5)c2cc1C`, the Potency is reported as inconclusive: 0.0025 µM [activator, full curve, poor fit].
In the case of `CCOc1ccc(CCNC(=O)C(CCC(N)=O)NC(=O)OCc2ccccc2)cc1OCC` (stereo not drawn), the Potency is reported as inconclusive: 31.6 µM [activator, single point].
In the case of `CC1CCCCN1CCNC(=O)CN1C(=O)COc2ccccc21` (stereo not drawn), the “activity change, positive = activation” value is reported as inactive: 3.16%.
In the case of `CCc1nnc(NS(=O)(=O)c2ccc(N=Cc3c(C)[nH]n(-c4ccc(C)c(C)c4)c3=O)cc2)s1`, the Potency is reported as inconclusive: 35.5 µM [activator, single point].
For `COc1cccc(C(=O)Nc2ncc3c(n2)CC(C)CC3=O)c1` (stereo not drawn), the Potency was inconclusive: 17.8 µM [activator, partial curve].
For `CCc1cccc(NC(=O)NC2CCCCC2)c1`, the Potency was inconclusive: 35.5 µM [activator, single point].
In the case of `COc1ccccc1CNC(=O)c1ccc2c(c1)N(Cc1c(F)cccc1Cl)C(=O)CS2`, the “activity change, positive = activation” value is reported as inactive: -22.1%.
In the case of `CC(C)CC(=O)N/C(N)=N/c1nc2ccccc2s1`, the Potency is reported as active: 11.2 µM.
With `COC(=O)Nc1ccc(SCC(=O)c2ccc(Cl)cc2)cc1` the “activity change, positive = activation” value was inactive: -1.93%.
With `CC(=O)NC(=S)Nc1ccc(NC(=O)c2cccs2)cc1` the Potency was inconclusive: 8.91 µM [activator, partial curve].
For `CC(C)(CSc1nncn1N)NS(=O)(=O)c1ccc(Cl)cc1`, the Potency was inconclusive: 35.5 µM [activator, partial curve, poor fit].
With `Cc1ccc(S(=O)(=O)Nc2nc(C)cc(NCCN)n2)cc1` the Potency was inconclusive: 0.112 µM [activator, full curve, poor fit].
In the case of `O=C(OCc1nnc(-c2ccccc2)o1)C1CCN(S(=O)(=O)c2cccs2)CC1`, the Potency is reported as inconclusive: 44.7 µM [activator, partial curve, poor fit].
For `COc1ccc(/C=C/C(=O)Nc2ccc(OC)cc2[N+](=O)[O-])cc1`, the “activity change, positive = activation” value was inactive: 1.8%.
With `Cc1ccc(C(=O)Cn2nnc3ccccc32)cc1C` the Potency was inconclusive: 14.1 µM [activator, single point].
For `Cc1ccc(C)c(OCc2nc3ccccc3[nH]2)c1`, the Potency was inconclusive: 15.8 µM [activator, single point].
In the case of `Cc1ccc(C(=O)OCc2nnc(-c3ccccc3)o2)o1`, the Potency is reported as inconclusive: 0.0251 µM [activator, full curve, poor fit].
In the case of `S=C(NN=C(C1CC1)C1CC1)Nc1ccccc1`, the Potency is reported as inconclusive: 35.5 µM [activator, single point].
With `Cc1cccc(/C=N/Nc2nncc3ccccc23)c1` the Potency was active: 2.51 µM.
For `CCc1ccc(NC(=O)c2ccc3c(c2)N(Cc2ccc(C)cc2)CCS3)cc1`, the Potency was active: 25.1 µM.
For `COc1ccc(C(=O)N[C@H](C(=O)Nc2nc3c(s2)CCCC3)C(C)C)cc1`, the Potency was inconclusive: 0.316 µM [activator, full curve, poor fit].
In the case of `COc1ccc(OC(=O)c2cccnc2)cc1`, the “activity change, positive = activation” value is reported as inactive: 0.241%.
For `CCOC(=O)c1sc(NC(=O)c2ccc(C)o2)nc1C`, the Potency was active: 12.6 µM.
In the case of `Nc1c(C(=O)c2cccs2)oc2ccccc12`, the Potency is reported as inconclusive: 35.5 µM [activator, single point].
For `CCC(Oc1ccc(C)c(C)c1)C(=O)O` (stereo not drawn), the Potency was inconclusive: 0.0045 µM [activator, full curve, poor fit].
In the case of `COc1ccc(-c2ccc(C(=O)O)c(=O)[nH]2)cc1`, the Potency is reported as inconclusive: 0.891 µM [activator, partial curve].
With `Cc1cccc(-n2c(C)cc(C=C3C(=O)c4ccccc4C3=O)c2C)c1` the “activity change, positive = activation” value was inactive: -20.6%.
For `O=C(O)c1cccc(NC(=O)c2ccc(Cl)c(S(=O)(=O)N3CCCCCC3)c2)c1`, the Potency was active: 8.91 µM.
With `Cc1cccc(N2CCN(C(=O)C3CCCCC3)CC2)c1C` the “activity change, positive = activation” value was inactive: -9.89%.
In the case of `COc1ccc(N2Cc3cccc(C(=O)Nc4ccc(C(C)C)cc4)c3C2=O)cc1`, the Potency is reported as inconclusive: 28.2 µM [activator, partial curve].
For `Cc1ccc(Nc2nnc(SCC(=O)N(C)C3CCS(=O)(=O)C3)s2)cc1` (stereo not drawn), the Potency was inconclusive: 28.2 µM [activator, single point].
In the case of `O=C(c1ccc(Cl)cc1)c1cnc(-c2ccc(Cl)cc2)s1`, the Potency is reported as inconclusive: 25.1 µM [activator, single point].
In the case of `CS(=O)(=O)c1ccc(-c2nc(-c3ccc(F)cc3)c(-c3ccncc3)[nH]2)cc1`, the Potency is reported as inconclusive: 28.2 µM [activator, single point].
In the case of `Cc1cc(NC(=O)C2C3C(=O)N(Cc4ccc(Cl)cc4)C(C(=O)NCc4ccccc4)C34C=CC2(C)O4)no1` (stereo not drawn), the Potency is reported as inconclusive: 7.08 µM [activator, partial curve].
In the case of `CCOc1ccc(N=Nc2c(N)[nH][nH]c2=O)cc1`, the Potency is reported as inconclusive: 10 µM [activator, partial curve, poor fit].
For `Cc1nc(-c2ccc(NC(=O)c3ccccc3Br)cc2)cs1`, the Potency was active: 15.8 µM.
In the case of `O=C(CCN1CCOCC1)Nc1ccc(F)cc1F`, the activity change, positive = activation is reported as inactive: -2.76% [at 9.22 µM].
For `Cn1cccc1Cc1nnc(SCC(=O)Nc2ccc3c(c2)OCO3)n1-c1ccc(F)cc1`, the Potency was inconclusive: 5.62 µM [activator, single point].
For `COc1ccc(OC2CCN(S(=O)(=O)c3ccc(OC)cc3)CC2)cc1`, the Potency was inconclusive: 0.316 µM [activator, full curve, poor fit].
For `C#CCn1cc(/C=N/Nc2nc3ccccc3[nH]2)c2ccccc21`, the Potency was inconclusive: 35.5 µM [activator, single point].
With `Cc1ccc(-c2noc(CSc3nc(N)cc(N)n3)n2)cc1` the Potency was inconclusive: 3.55 µM [activator, single point].
For `CC(/C=N/NC(=O)c1cccs1)=C\c1ccccc1`, the Potency was active: 3.98 µM.
For `C=CCC(NCc1ccccc1)c1ccccc1` (stereo not drawn), the Potency was inconclusive: 0.0022 µM [activator, full curve, poor fit].
In the case of `Cn1cccc1CC(=O)N/N=C/C(Cl)=C/c1ccccc1`, the activity change, positive = activation is reported as inconclusive: 30.9% [activator].
With `CC(/C=N/Nc1nnc(C)c(=O)[nH]1)=C\c1ccccc1` the Potency was inconclusive: 0.01 µM [activator, full curve].
In the case of `O=C(Nc1cccc(Cl)c1N1CCCC1)c1cc2ccccc2o1`, the Potency is reported as inconclusive: 0.708 µM [activator, full curve].
With `CCOCC(=O)Nc1nnc(COCC)s1` the Potency was inconclusive: 0.02 µM [activator, full curve].
In the case of `CCC(CC)C(=O)NC12CC3CC(CC(C3)C1)C2`, the Potency is reported as inconclusive: 0.0141 µM [activator, full curve, poor fit].
For `O=[N+]([O-])c1cc(/C=N/O)ccc1SCc1ccccc1Cl`, the “activity change, positive = activation” value was inactive: -15.5%.
In the case of `O=C(NC1CCCCCCC1)C1CCN(c2nc3ccccc3o2)CC1`, the “activity change, positive = activation” value is reported as inactive: -72.8%.
With `N/C(=N\OC(=O)c1cccc(Br)c1)c1ccccc1` the Potency was inconclusive: 17.8 µM [activator, partial curve, poor fit].
For `Cc1ccc2[nH]c3c(c2c1)CCCC3=O`, the activity change, positive = activation was inconclusive: 38.4% [activator].
In the case of `O=C(NCc1cccs1)c1ccc(N2CCCCC2)nc1`, the Potency is reported as inconclusive: 12.6 µM [activator, single point].
In the case of `COc1cccc(C=Nc2ccccc2C#N)c1O`, the Potency is reported as inconclusive: 3.16 µM [activator, partial curve].
In the case of `Cc1cc(C)c(Cn2c3ccccc3c3cnn(CC(=O)NC4CCC(C)CC4)c(=O)c32)c(C)c1` (stereo not drawn), the “activity change, positive = activation” value is reported as inactive: 2.37%.
With `COc1ccc(NC(=O)CCOc2ccccc2)cc1` the Potency was inconclusive: 35.5 µM [activator, single point].
In the case of `O=C(COc1ccc(S(=O)(=O)N2CCCC2)cc1Cl)NC1CCCC1`, the Potency is reported as inconclusive: 35.5 µM [activator, single point].
In the case of `COc1cc(/C=C2/C(=O)ON=C2C)ccc1OCc1cccc(F)c1`, the Potency is reported as active: 12.6 µM.
With `CCCCCOc1ccc(CN2CCOCC2)cc1Cl` the Potency was inconclusive: 35.5 µM [activator, partial curve, poor fit].
For `O=C(Nc1cccs1)Nc1cc(C(F)(F)F)ccc1Cl`, the “activity change, positive = activation” value was inactive: -14.1%.
With `O=C(CSc1nnc(CN2CCOCC2)n1-c1ccccc1)N1CCc2ccccc21` the Potency was inconclusive: 0.0316 µM [activator, full curve, poor fit].
For `CN(C)C(=O)c1cc(-c2ccccc2)no1`, the Potency was inconclusive: 14.1 µM [activator, partial curve].
In the case of `CC(C)Cn1cnc2c1c(=O)n(CC(O)c1ccccc1)c(=O)n2CC(C)C` (stereo not drawn), the Potency is reported as inconclusive: 1.12 µM [activator, full curve, poor fit].
With `Cc1ccc(-c2nc3cc(C(C)C)ccc3o2)cc1NC(=O)c1cc2ccccc2o1` the “activity change, positive = activation” value was inactive: -8.16%.
In the case of `Cc1cc(C(=O)CN2C(=O)c3ccccc3C2=O)c(C)n1Cc1cccs1`, the Potency is reported as active: 14.1 µM.
With `COc1cc2nncc(SCc3ccc(Cl)c(Cl)c3)c2cc1OC` the activity change, positive = activation was inactive: -4.87% [at 9.22 µM].
For `CCOC(=O)c1c(C)[nH]c(C(=O)OCCOc2ccccc2C)c1C`, the Potency was active: 3.55 µM.
With `O=C(Nn1c(C2CCCCC2)nc2ccccc2c1=O)c1ccc([N+](=O)[O-])cc1Cl` the Potency was inconclusive: 0.794 µM [activator, full curve, poor fit].
